{"source": "PubChem BioAssay AID463173", "about": "(ICCB-Longwood Screening Facility, Harvard Medical School, 2010)", "note": "Among all 52,000 compounds or so, about 4,300 (8.3%) were called active. Rule as the data show it: active = survival mostly below about 52% (no sharp cut-off); inactive = mostly above about 56%. Some of the results follow.", "data": [{"system": "DeltatarO mutant", "test": "S. aureus survival, RN4220 and DeltatarO strains – OD600, teichoic acid synthesis inhibitors, primary screen (AID 463173)", "settings": "S. aureus RN4220 wild type/DeltatarO growth, OD600, 18 h, stronger effect = lower value, screened at 18.75 µg/mL (by protocol)", "values": [{"smiles": "Cc1nc(SCc2ccc(Cl)cc2)c(C#N)c(C)c1Cl", "survival": "inactive: 46%"}, {"smiles": "COc1ccc(OC)c(CNc2sc3c(c2C(=O)Nc2cc(OC)ccc2OC)CCCC3)c1", "survival": "inactive: 73%"}, {"smiles": "C=CCn1c(-c2ccccc2)c[nH]c1=S", "survival": "inactive: 76%"}, {"smiles": "COc1ccc(OC)c(NC(=O)N2CCC(CN3CCCCC3)CC2)c1", "survival": "inactive: 75%"}, {"smiles": "CC(C)Cn1cc(C(=O)N2CCN(c3cccc(Cl)c3)CC2)c2c3ccccc3n(C)c2c1=O", "survival": "inactive: 59%"}, {"smiles": "CCOC(=O)c1cnc2ccc(OCC)cc2c1Nc1cc(Cl)c(OC)cc1OC", "survival": "active: 51%"}, {"smiles": "CC(=O)N1CCCc2cc(S(=O)(=O)N3CCCC(C(=O)Nc4cccc(Cl)c4C)C3)ccc21", "note": "(stereo not given)", "survival": "inactive: 67%"}, {"smiles": "COC(=O)C1=C(C)N(Cc2cccnc2)C(=O)C1", "survival": "inactive: 89%"}, {"smiles": "CCn1c(SCC(=O)c2ccccc2)nnc1-c1ccco1", "survival": "inactive: 86%"}, {"smiles": "O=C(Cn1cnc2nc3c(cc2c1=O)CCCC3)N1CCN(c2ccccc2)CC1", "survival": "inactive: 89%"}, {"smiles": "Cc1cc(C)cc(NC(=O)Cn2c3ncccc3c(=O)n2-c2ccc(C)c(C)c2)c1", "survival": "inactive: 78%"}, {"smiles": "CCC(NC(=O)c1ccccc1NC(=O)c1ccco1)C(=O)NC1CCCCC1", "note": "(stereo not given)", "survival": "inactive: 73%"}, {"smiles": "O=C(NCc1ccccc1)c1ccc2c(c1)nc1n2CCCCC1", "survival": "inactive: 67%"}, {"smiles": "CCc1ccc(NC(=O)Cn2c(=O)n(CC3CCCO3)c(=O)c3cc(OC)c(OC)cc32)cc1", "note": "(stereo not given)", "survival": "inactive: 98%"}, {"smiles": "O=C(Cn1c(=O)c2cccn2c2ccc(F)cc21)N1CCN(c2ccccc2)CC1", "survival": "inactive: 84%"}, {"smiles": "Cc1ccc(-c2cc(C(F)(F)F)c(C#N)c(SCC(=O)O)n2)cc1", "survival": "inactive: 66%"}, {"smiles": "COc1ccc(NC(=O)Nc2ccccc2OCc2cc(=O)n3ccccc3n2)c(OC)c1", "survival": "inactive: 117%"}, {"smiles": "Cc1ccccc1CNC(=O)C(=O)NCC(c1cccs1)S(=O)(=O)c1ccc(Cl)cc1", "note": "(stereo not given)", "survival": "inactive: 80%"}, {"smiles": "O=C(CN1C(=O)C2CCCCN2c2ccc(C(=O)N3CCCC3)cc21)NCc1cccc(F)c1", "note": "(stereo not given)", "survival": "inactive: 66%"}, {"smiles": "Cc1cccc(N2CCN(Cc3nnc(-c4ccc5c(c4)OCO5)o3)CC2)c1C", "survival": "inactive: 83%"}, {"smiles": "CCc1nn2c(=O)cc(COc3ccc(/C=C(\\C#N)C(=O)Nc4ccc(C)cc4)cc3)nc2s1", "survival": "inactive: 91%"}, {"smiles": "Cc1ccc(-c2c3c(=O)n(C)c(=O)n(C)c3cn2-c2cc(C)ccc2O)cc1", "survival": "inactive: 75%"}, {"smiles": "Cc1ccc(-n2ncc3c(=O)n(CC(=O)N(C)C)cnc32)cc1", "survival": "inactive: 101%"}, {"smiles": "COc1ccc(N2CCN(C3C(=O)c4ccccc4N3C(C)=O)CC2)cc1", "note": "(stereo not given)", "survival": "inactive: 98%"}, {"smiles": "COc1cccc(NC(=O)Cn2c(=O)n(CC(=O)NCCc3ccccc3)c(=O)c3sccc32)c1", "survival": "active: 45%"}]}]}
